{"source": "PubChem BioAssay AID445", "about": "(National Center for Advancing Translational Sciences (NCATS), 2006)", "note": "In all, about 110,000 compounds went through this assay and about 40 (0.04%) were called active. Inconclusive results, whose numbers are uncertain, are shown with a selection of clear calls. The call rests on the fitted dose curve; in most records, active means well fitted curve in the direction sought with a large enough effect in the signal ratio (not every such curve was filed as active); inconclusive means small, poorly fitted or top-dose-only effect, or a change in a side signal; inactive means flat fitted curve, though single readings scatter; the % refers to the signal ratio. Potencies beside an inconclusive call are fits to weak or partial responses and may not hold up. Potency means the concentration at half of the fitted maximal effect."}
{"test": "IkB Signaling;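 on IkBa stabilization activation: 0% = basal untreated cells and 100% = reference inhibitor full response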", "settings": "ABC-DLBCL IkBa-CBG/CBR dual luciferase ratio (green luciferase fused to IkBa over red control in OCI-Ly3 lymphoma cells), 4 h; IkBa stabilization activation: at 57.1 µM (top of the series), scaled: untreated 0%, proteasome inhibitor 100% unless noted", "summary_of_the_method": "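Luminescence ratio of IκBα-fused green versus native red beetle luciferase in OCI-Ly3 cells, 4 h post-doxycycline with compound; red signal alone, scaled from basal (0%) to zero light (-100%), flagged nonspecific or cytotoxic effects.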"}
{"smiles": "COc1ccc(CNC(=O)C2CCN(S(=O)(=O)N3CCC(C)CC3)CC2)c(OC)c1", "IkBa stabilization activation": "inconclusive: -0.15% [signal inhibitor]"}
{"smiles": "COc1cccc(NC(=O)C2CC(=O)N(c3ccc(Br)cc3)C2)c1", "note": "(stereo unspecified)", "IkBa stabilization activation": "inconclusive: 7.2% [signal inhibitor]"}
{"smiles": "O=C(NC1=NCCS1)c1cc2ccccc2o1", "Potency": "inconclusive: 25.1 µM [signal inhibitor, partial curve]"}
{"smiles": "COc1ccc(OC)c(CCNC(=O)c2ccc3[nH]c(C)c(C)c3c2)c1", "IkBa stabilization activation": "inconclusive: 2.18% [signal inhibitor]"}
{"smiles": "Cn1c(C(=O)NCCC2=CCCCC2)cc2c(=O)n3ccccc3nc21", "IkBa stabilization activation": "inactive: -0.174%"}
{"smiles": "COc1ccc(CNC(=O)c2cc3c(=O)n4ccccc4nc3n(Cc3ccco3)c2=N)cc1", "Potency": "inconclusive: 12.6 µM [signal inhibitor, partial curve]"}
{"smiles": "COc1cccc(CNC(=O)c2cc3c(=O)n(C)c4ccccc4c3n2C)c1", "IkBa stabilization activation": "inconclusive: 0.174% [signal inhibitor]"}
{"smiles": "Cc1ccc(C)c(N2CCN(C(=O)c3cccn3-c3nnc(N4CCCCC4)s3)CC2)c1", "IkBa stabilization activation": "inconclusive: 8.44% [signal inhibitor]"}
{"smiles": "COc1ccccc1CCNC(=O)CCc1c(C)c2cc3c(C)coc3cc2oc1=O", "IkBa stabilization activation": "inconclusive: 3.55% [signal inhibitor]"}
{"smiles": "CCc1nc2ccc(C(=O)NCCc3ccc(OC)c(OC)c3)cc2nc1CC", "IkBa stabilization activation": "inactive: 1.22%"}
{"smiles": "O=C(c1ccco1)N1CCN(c2nc3ccc(Cl)cc3s2)CC1", "IkBa stabilization activation": "inactive: 1.2%"}
{"smiles": "CCN1CCN(CCCNC(=O)c2cc3c(s2)-c2c(C)cccc2OC3)CC1", "IkBa stabilization activation": "inconclusive: 0.0789% [signal inhibitor]"}
{"smiles": "COc1ccc(Br)cc1C1NC(=O)c2c(sc3c2CCN(C)C3)N1", "note": "(stereo unspecified)", "IkBa stabilization activation": "inactive: 3.84%"}
{"smiles": "Cc1ccccc1OCC(=O)Nc1ccccc1C(=O)OCc1cc(=O)n2c(C)csc2n1", "IkBa stabilization activation": "inactive: -0.0781%"}
{"smiles": "COC(=O)C1=C(C)NC(C)=C(C(=O)OC)C1c1cc2ccc(C)cc2[nH]c1=O", "IkBa stabilization activation": "inactive: 5%"}
{"smiles": "Cc1ccc(Nc2cc(C(=O)NC3CCCC3)c3ccccc3n2)c(C)c1", "IkBa stabilization activation": "inconclusive: 1.86% [signal inhibitor]"}
{"smiles": "CN(Cc1ccccc1)C(=O)Cn1ncc2c3ccccc3n(Cc3cccc(Cl)c3)c2c1=O", "IkBa stabilization activation": "inconclusive: 1.11% [signal inhibitor]"}
{"smiles": "CCOC(=O)c1sc(NC(=O)c2ccc(Br)o2)cc1C", "IkBa stabilization activation": "inactive: 6.13%"}
{"smiles": "Cc1cc(C)c2oc(-c3cccc(NC(=O)c4cc5ccccc5o4)c3)nc2c1", "IkBa stabilization activation": "inactive: 0.962%"}
{"smiles": "O=S(=O)(NCCOCC(F)(F)C(F)F)c1ccc2oc3ccccc3c2c1", "IkBa stabilization activation": "inconclusive: 10.1% [signal inhibitor]"}
{"smiles": "CCOC(=O)c1cnn(-c2nc(-c3ccccc3)nc3c2COC(C)(C)C3)c1N", "IkBa stabilization activation": "inactive: -1.4%"}
